# This is one part of the list.
# B1: Gal 3C (Homo sapiens), P17931 (protein)
# chain: YGAPAGPLIVPYNLPLPGGVVPRMLITILGTVKPNANRIALDFQRGNDVAFHFNPRFNENNRRVIVCNTKLDNNWGREERQSVFPFESGKPFKIQVLVEPDHFKVAVNDAHLLQYNHRVKKLNEISKLGISGDIDLTSASYTMI
# Columns and labels:
# Test in all cases: glycan array binding signal (z-score within array); higher = stronger binding
# Settings in all cases: glycan notation: IUPAC condensed, linker removed
# [1] = target: Fuc(a1-2)[Gal(a1-3)]Gal(b1-4)GlcNAc(b1-2)Man(a1-3)[Fuc(a1-2)[Gal(a1-3)]Gal(b1-4)GlcNAc(b1-2)Man(a1-6)]Man(b1-4)GlcNAc(b1-4)GlcNAc
# Outline: (§1)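 The binding signal is a Z-score computed within each array. Data were drawn from 3228 arrays in the Consortium for Functional Glycomics database, restricted to those with a known protein sequence. Scores were averaged over arrays of the same protein sequence at different concentrations or buffers, and over linkers, and negative values can be taken as non-binding.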
# [2] = target: Fuc(a1-2)[Gal(a1-3)]Gal(b1-4)GlcNAc(b1-2)Man(a1-3)[Fuc(a1-2)[Gal(a1-3)]Gal(b1-4)GlcNAc(b1-2)Man(a1-6)]Man(b1-4)GlcNAc(b1-4)[Fuc(a1-6)]GlcNAc
# Outline: as §1
# [3] = target: Fuc(a1-2)[Gal(a1-3)]Gal(b1-4)GlcNAc(b1-3)GalNAc
# Outline: as §1
# [4] = target: Fuc(a1-2)[Gal(a1-3)]Gal(b1-4)GlcNAc(b1-3)[Fuc(a1-2)[Gal(a1-3)]Gal(b1-4)GlcNAc(b1-6)]GalNAc
# Outline: as §1
# [5] = target: Fuc(a1-2)[Gal(a1-3)]Gal(b1-4)GlcNAc(b1-6)GalNAc
# Outline: as §1
# [6] = target: Fuc(a1-2)[Gal(a1-3)]Gal(b1-4)[Fuc(a1-3)]Glc
# Outline: as §1
# [7] = target: Fuc(a1-2)[Gal(a1-3)]Gal(b1-4)[Fuc(a1-3)]GlcNAc
# Outline: as §1
# [8] = target: Fuc(a1-2)[Gal(a1-3)]Gal(b1-4)[Fuc(a1-3)]GlcNAc(b1-3)GalNAc
# Outline: as §1
# [9] = target: Fuc(a1-2)[Gal(a1-4)]Gal(b1-4)GlcNAc
# Outline: as §1
# [10] = target: Fuc(a1-2)[GalNAc(a1-3)]Gal
# Outline: as §1
# [11] = target: Fuc(a1-2)[GalNAc(a1-3)]Gal(b1-3)GalNAc(a1-3)[Fuc(a1-2)]Gal(b1-4)GlcNAc
# Outline: as §1
# [12] = target: Fuc(a1-2)[GalNAc(a1-3)]Gal(b1-3)GalNAc(b1-3)Gal(a1-4)Gal(b1-4)Glc
# Outline: as §1
# [13] = target: Fuc(a1-2)[GalNAc(a1-3)]Gal(b1-3)GlcNAc
# Outline: as §1
# [14] = target: Fuc(a1-2)[GalNAc(a1-3)]Gal(b1-3)GlcNAc(b1-2)Man(a1-3)[Fuc(a1-2)[GalNAc(a1-3)]Gal(b1-3)GlcNAc(b1-2)Man(a1-6)]Man(b1-4)GlcNAc(b1-4)GlcNAc
# Outline: as §1
# [15] = target: Fuc(a1-2)[GalNAc(a1-3)]Gal(b1-3)GlcNAc(b1-2)Man(a1-3)[Fuc(a1-2)[GalNAc(a1-3)]Gal(b1-3)GlcNAc(b1-2)Man(a1-6)]Man(b1-4)GlcNAc(b1-4)[Fuc(a1-6)]GlcNAc
# Outline: as §1
# [16] = target: Fuc(a1-2)[GalNAc(a1-3)]Gal(b1-3)GlcNAc(b1-3)GalNAc
# Outline: as §1
# [17] = target: Fuc(a1-2)[GalNAc(a1-3)]Gal(b1-3)GlcNAc(b1-6)GalNAc
# Outline: as §1
# [18] = target: Fuc(a1-2)[GalNAc(a1-3)]Gal(b1-4)Glc
# Outline: as §1
# [19] = target: Fuc(a1-2)[GalNAc(a1-3)]Gal(b1-4)GlcNAc
# Outline: as §1
# [20] = target: Fuc(a1-2)[GalNAc(a1-3)]Gal(b1-4)GlcNAc(b1-2)Man
# Outline: as §1
# [21] = target: Fuc(a1-2)[GalNAc(a1-3)]Gal(b1-4)GlcNAc(b1-2)Man(a1-3)[Fuc(a1-2)[GalNAc(a1-3)]Gal(b1-4)GlcNAc(b1-2)Man(a1-6)]Man(b1-4)GlcNAc(b1-4)GlcNAc
# Outline: as §1
# [22] = target: Fuc(a1-2)[GalNAc(a1-3)]Gal(b1-4)GlcNAc(b1-2)Man(a1-3)[Fuc(a1-2)[GalNAc(a1-3)]Gal(b1-4)GlcNAc(b1-2)Man(a1-6)]Man(b1-4)GlcNAc(b1-4)[Fuc(a1-6)]GlcNAc
# Outline: as §1
# [23] = target: Fuc(a1-2)[GalNAc(a1-3)]Gal(b1-4)GlcNAc(b1-3)Gal(b1-4)GlcNAc
# Outline: as §1
# [24] = target: Fuc(a1-2)[GalNAc(a1-3)]Gal(b1-4)GlcNAc(b1-3)Gal(b1-4)GlcNAc(b1-3)Gal(b1-4)GlcNAc
# Outline: as §1
# [25] = target: Fuc(a1-2)[GalNAc(a1-3)]Gal(b1-4)GlcNAc(b1-3)GalNAc
# Outline: as §1
# [26] = target: Fuc(a1-2)[GalNAc(a1-3)]Gal(b1-4)GlcNAc(b1-3)[Fuc(a1-2)[GalNAc(a1-3)]Gal(b1-4)GlcNAc(b1-6)]GalNAc
# Outline: as §1
# [27] = target: Fuc(a1-2)[GalNAc(a1-3)]Gal(b1-4)GlcNAc(b1-6)GalNAc
# Outline: as §1
# [28] = target: Fuc(a1-2)[GalNAc(a1-3)]Gal(b1-4)[Fuc(a1-3)]GlcNAc
# Outline: as §1
# [29] = target: Fuc(a1-2)[GalNAc(a1-3)]Gal(b1-4)[Fuc(a1-3)]GlcNAc(b1-3)GalNAc
# Outline: as §1
# [30] = target: Fuc(a1-2)[GalNAc(a1-4)]Gal(b1-4)GlcNAc
# Outline: as §1
# [31] = target: Fuc(a1-2)[GalNAc(b1-3)]Gal
# Outline: as §1
# Fuc(a1-3)GlcNAc = target: Fuc(a1-3)GlcNAc
# Outline: as §1
# [32] = target: Fuc(a1-3)[Gal(b1-4)]Glc6S
# Outline: as §1
# [33] = target: Fuc(a1-3)[Gal(b1-4)]GlcNAc
# Outline: as §1
# [34] = target: Fuc(a1-3)[Gal(b1-4)]GlcNAc(b1-2)Man
# Outline: as §1
# [35] = target: Fuc(a1-3)[Gal(b1-4)]GlcNAc(b1-2)Man(a1-3)[Fuc(a1-3)[Gal(b1-4)]GlcNAc(b1-2)Man(a1-6)]Man(b1-4)GlcNAc(b1-4)GlcNAc
# Outline: as §1
# [36] = target: Fuc(a1-3)[Gal(b1-4)]GlcNAc(b1-2)Man(a1-3)[Fuc(a1-3)[Gal(b1-4)]GlcNAc(b1-2)Man(a1-6)]Man(b1-4)GlcNAc(b1-4)[Fuc(a1-6)]GlcNAc
# Outline: as §1
# [37] = target: Fuc(a1-3)[Gal(b1-4)]GlcNAc(b1-3)Gal(b1-3)[Fuc(a1-4)]GlcNAc
# Outline: as §1
# [38] = target: Fuc(a1-3)[Gal(b1-4)]GlcNAc(b1-3)Gal(b1-4)[Fuc(a1-3)]GlcNAc
# Outline: as §1
# [39] = target: Fuc(a1-3)[Gal(b1-4)]GlcNAc(b1-3)Gal(b1-4)[Fuc(a1-3)]GlcNAc(b1-3)Gal(b1-4)[Fuc(a1-3)]GlcNAc
# Outline: as §1
# [40] = target: Fuc(a1-3)[Gal(b1-4)]GlcNAc(b1-3)GalNAc
# Outline: as §1
# [41] = target: Fuc(a1-3)[Gal(b1-4)]GlcNAc(b1-6)GalNAc
# Outline: as §1
# [42] = target: Fuc(a1-3)[Gal(b1-4)]GlcNAc(b1-6)[Gal(b1-3)GlcNAc(b1-3)]Gal(b1-4)Glc
# Outline: as §1
# [43] = target: Fuc(a1-3)[Gal(b1-4)]GlcNAc6S
# Outline: as §1
# [44] = target: Fuc(a1-3)[Gal3S(b1-4)]Glc
# Outline: as §1
binder,measurement,setting,value
B1,glycan array binding signal (z-score),[1],2.72
same,glycan array binding signal (z-score),[2],0.582
same,glycan array binding signal (z-score),[3],0.723
same,glycan array binding signal (z-score),[4],1.16
same,glycan array binding signal (z-score),[5],-0.251
same,glycan array binding signal (z-score),[6],-0.321
same,glycan array binding signal (z-score),[7],-0.196
same,glycan array binding signal (z-score),[8],-0.257
same,glycan array binding signal (z-score),[9],-0.216
same,glycan array binding signal (z-score),[10],-0.28
same,glycan array binding signal (z-score),[11],-0.241
same,glycan array binding signal (z-score),[12],-0.334
same,glycan array binding signal (z-score),[13],-0.132
same,glycan array binding signal (z-score),[14],-0.236
same,glycan array binding signal (z-score),[15],-0.271
same,glycan array binding signal (z-score),[16],-0.191
same,glycan array binding signal (z-score),[17],-0.229
same,glycan array binding signal (z-score),[18],-0.117
same,glycan array binding signal (z-score),[19],0.703
same,glycan array binding signal (z-score),[20],0.944
same,glycan array binding signal (z-score),[21],0.961
same,glycan array binding signal (z-score),[22],-0.024
same,glycan array binding signal (z-score),[23],1.2
same,glycan array binding signal (z-score),[24],1.54
same,glycan array binding signal (z-score),[25],-0.148
same,glycan array binding signal (z-score),[26],0.25
same,glycan array binding signal (z-score),[27],-0.21
same,glycan array binding signal (z-score),[28],-0.078
same,glycan array binding signal (z-score),[29],3.76
same,glycan array binding signal (z-score),[30],-0.361
same,glycan array binding signal (z-score),[31],-0.188
same,glycan array binding signal (z-score),Fuc(a1-3)GlcNAc,-0.322
same,glycan array binding signal (z-score),[32],-0.238
same,glycan array binding signal (z-score),[33],-0.343
same,glycan array binding signal (z-score),[34],-0.317
same,glycan array binding signal (z-score),[35],-0.35
same,glycan array binding signal (z-score),[36],-0.205
same,glycan array binding signal (z-score),[37],-0.276
same,glycan array binding signal (z-score),[38],-0.304
same,glycan array binding signal (z-score),[39],-0.136
same,glycan array binding signal (z-score),[40],-0.191
same,glycan array binding signal (z-score),[41],-0.149
same,glycan array binding signal (z-score),[42],-0.379
same,glycan array binding signal (z-score),[43],-0.105
same,glycan array binding signal (z-score),[44],-0.29

# — the supplement of paper PMC8728848
